Measured values reported in article PMC3244446.
These are yes or no findings as the source states them, for the method shown. Binding seen in cells or lysates may run through a third protein. Some entries that bind do so weakly or less than the wild type.

Sequences of proteins named here, by UniProt entry; tags and fusion partners are left off. A change or cut given only in a name is not applied to a line headed by its entry. A line that says so, or that is headed by a name, gives the form on record, which may keep a tag or linker. Residues count along the entry.
GST-tagged CD44 hyaluronan binding domain 21–132 (CD44HABD) (P16070, residues 21-132): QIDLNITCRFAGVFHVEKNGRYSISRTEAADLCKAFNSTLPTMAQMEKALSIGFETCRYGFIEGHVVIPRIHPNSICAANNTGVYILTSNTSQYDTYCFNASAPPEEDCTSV
C-terminally Flag-tagged CD44 standard isoform, full-length (P16070, form named): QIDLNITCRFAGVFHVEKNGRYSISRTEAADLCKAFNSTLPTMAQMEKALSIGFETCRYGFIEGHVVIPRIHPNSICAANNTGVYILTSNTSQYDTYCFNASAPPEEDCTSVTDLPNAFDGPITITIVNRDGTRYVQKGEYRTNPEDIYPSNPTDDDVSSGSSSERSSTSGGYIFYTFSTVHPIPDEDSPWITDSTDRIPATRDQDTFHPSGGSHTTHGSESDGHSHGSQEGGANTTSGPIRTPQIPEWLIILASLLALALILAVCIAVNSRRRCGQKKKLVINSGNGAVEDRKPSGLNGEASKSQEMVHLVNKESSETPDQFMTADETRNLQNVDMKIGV
GST-tagged CD44HABD^R41AR78SY79S (CD443MUT), non-HA-binding triple mutant (P16070, form named): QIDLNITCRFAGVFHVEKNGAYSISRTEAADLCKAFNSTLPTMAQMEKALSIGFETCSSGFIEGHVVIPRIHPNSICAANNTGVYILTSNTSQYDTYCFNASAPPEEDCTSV
UniProt P08670: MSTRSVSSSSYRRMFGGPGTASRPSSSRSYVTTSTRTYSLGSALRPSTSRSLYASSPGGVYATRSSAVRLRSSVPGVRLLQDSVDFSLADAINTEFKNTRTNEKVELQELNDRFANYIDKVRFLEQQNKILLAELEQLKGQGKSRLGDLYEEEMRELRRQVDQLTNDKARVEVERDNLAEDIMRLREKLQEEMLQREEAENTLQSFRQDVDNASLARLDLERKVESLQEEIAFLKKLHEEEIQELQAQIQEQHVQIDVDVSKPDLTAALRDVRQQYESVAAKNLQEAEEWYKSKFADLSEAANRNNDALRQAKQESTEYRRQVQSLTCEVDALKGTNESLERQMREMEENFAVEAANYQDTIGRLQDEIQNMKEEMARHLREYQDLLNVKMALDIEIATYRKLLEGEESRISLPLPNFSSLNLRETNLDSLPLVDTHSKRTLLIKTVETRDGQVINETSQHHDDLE

How the values were obtained:
[1] = target: C-terminally Flag-tagged CD44 standard isoform, full-length (human) (UniProt P16070); experiment: co-IP; MCF-7 cells overexpressing CD44-Flag and vimentin-Myc; lysis in 40 mM Hepes pH 7.4, 120 mM NaCl, 1 mM EDTA, 0.6% CHAPS; anti-Flag-M2 affinity gel overnight 4°C; blot with anti-Myc
[2] = target: GST-tagged CD44 hyaluronan binding domain 21–132 (CD44HABD) (human) (UniProt P16070); experiment: pull-down; GST-CD44HABD or GST-CD443MUT on glutathione beads, lysates of MCF-7 cells transfected with full-length vimentin or deletion mutants; immunoblot with tag-specific antibodies; only the target purified
[3] = target: GST-tagged CD44HABD^R41AR78SY79S (CD443MUT), non-HA-binding triple mutant (human) (UniProt P16070); experiment: as above
[4] = target: GST-tagged CD44 hyaluronan binding domain 21–132 (CD44HABD) (human) (UniProt P16070); experiment: pull-down; GST-CD44HABD or GST-CD443MUT on glutathione beads, HUVEC lysate, overnight 4°C; immunoblot with anti-vimentin V9; only the target purified
[5] = target: GST-tagged CD44HABD^R41AR78SY79S (CD443MUT), non-HA-binding triple mutant (human) (UniProt P16070); experiment: as above

Substance	binding [1]	binding [2]	binding [3]	binding [4]	binding [5]
Myc-tagged vimentin, full-length (from UniProt P08670 1-466)	binds	–	–	–	–
vimentin deletion mutant VIM1-245 (head domain and alpha-helices 1A-B) (from UniProt P08670 1-245) (domain or fragment)	–	binds	binds	–	–
endogenous vimentin of HUVEC (from UniProt P08670 1-466)	–	–	–	binds	binds
vimentin deletion mutant VIM97-466 (lacks the head domain) (from UniProt P08670 97-466) (domain or fragment)	–	no binding	no binding	–	–

Second part, the substance after the results:

binding [1]	binding [2]	binding [3]	binding [4]	binding [5]	Substance
–	binds	binds	–	–	full-length vimentin expressed in MCF-7 cells for GST pull-down (from UniProt P08670 1-466)
–	binds	binds	–	–	vimentin deletion mutant VIM1-96 (head domain) (from UniProt P08670 1-96) (domain or fragment)
–	no binding	no binding	–	–	vimentin deletion mutant VIM246-466 (C-terminal half from alpha-helices 2A-B) (from UniProt P08670 246-466) (domain or fragment)
–	no binding	no binding	–	–	vimentin deletion mutant VIM407-466 (tail domain) (from UniProt P08670 407-466) (domain or fragment)
